Assay [1] has as its target human adrenomedullin receptor 2 (hCRLR + hRAMP3) (human, UniProt O60896 24-148). The experiment in a line: cell-based or functional assay.
Assay [2] has as its target T1, cynomolgus CGRP receptor (cynoCRLR + cynoRAMP1) (cynomolgus monkey).
T1 chain 1: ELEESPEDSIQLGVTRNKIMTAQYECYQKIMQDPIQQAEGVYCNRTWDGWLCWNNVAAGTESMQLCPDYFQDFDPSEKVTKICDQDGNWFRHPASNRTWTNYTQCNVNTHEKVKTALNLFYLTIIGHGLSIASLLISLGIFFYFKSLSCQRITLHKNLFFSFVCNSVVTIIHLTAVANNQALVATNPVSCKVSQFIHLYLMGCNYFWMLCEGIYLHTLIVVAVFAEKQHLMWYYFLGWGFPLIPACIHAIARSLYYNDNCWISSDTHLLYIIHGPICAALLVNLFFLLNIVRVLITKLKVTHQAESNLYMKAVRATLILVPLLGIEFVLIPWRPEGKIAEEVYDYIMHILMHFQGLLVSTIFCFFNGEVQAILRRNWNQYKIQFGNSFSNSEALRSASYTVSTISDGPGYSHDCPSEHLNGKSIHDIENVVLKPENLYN
T1 chain 2: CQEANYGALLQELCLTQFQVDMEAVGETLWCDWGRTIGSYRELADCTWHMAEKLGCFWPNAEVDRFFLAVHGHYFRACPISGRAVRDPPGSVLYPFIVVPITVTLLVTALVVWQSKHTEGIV
As to the kind of experiment: cell-based or functional assay.

For assay [3], the target named is rat CGRP receptor (rat, UniProt Q63118 24-464; Q9JJ74 27-148). As to the kind of experiment: cell-based or functional assay.
Assay [4] has as its target human amylin AMY1 receptor (hCTR + hRAMP1) (human, UniProt P30988 25-474). The experiment in a line: cell-based or functional assay.
Assay [5] has as its target human adrenomedullin receptor 1 (hCRLR + hRAMP2) (human, UniProt O60895 43-175). As to the kind of experiment: cell-based or functional assay.
Assay [6] deals with T2, soluble CGRP receptor-muFc fusion protein (human).
T2 construct: also called CGRP R-muFc; not shown: mouse Fc
T2 chain 1: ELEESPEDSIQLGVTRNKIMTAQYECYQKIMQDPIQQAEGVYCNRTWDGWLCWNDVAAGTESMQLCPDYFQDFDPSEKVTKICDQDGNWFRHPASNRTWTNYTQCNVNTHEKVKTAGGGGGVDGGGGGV
T2 chain 2: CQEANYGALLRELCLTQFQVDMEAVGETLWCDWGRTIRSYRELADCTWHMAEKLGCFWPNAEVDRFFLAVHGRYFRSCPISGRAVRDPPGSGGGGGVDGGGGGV
As to the kind of experiment: Western blot. As to the method: The sample containing βME was then boiled for 4 min. […] Gels were electroblotted onto 0.2 μm nitrocellulose filters (Invitrogen). The blots were washed with Tris-buffered saline+1% Tween 20 (TBST) and then blocked with TBST+5% powered dry milk for 30 min. The blots were cut into strips along the molecular weight marker lanes. […] Blots were incubated with the antibodies for one hour followed by 3×10 min washes with TBST+1% milk. The blots treated with the huCGRP R antibodies were then incubated with goat anti-mouse IgG-Fc-HRP (1:10,000 in TBST+1% milk) and the blots treated with anti-huRAMP1 (N-20 anti-RAMP1 goat polyclonal antibody, Santa Cruz Biotech, CA) were incubated with rabbit anti-goat IgG-Fc-HRP (1:10,000) for 20 min. Blots were washed 3×15 min with TBST. The huCGRP R and anti-huRAMP1 antibody blots were treated with Pierce Supersignal West Pico Detection reagent, and the anti-mouse and anti-human IgG-Fc-HRP blots were treated with Pierce standard Detection Reagent (1 min.). Blots were then exposed with Kodak Biomax MS X-ray film.
(In western blotting, separated proteins are transferred to a membrane and probed.)

Numbering of substitutions follows the chain as printed. Some results are limits rather than exact numbers.

UniProt Q63118, sequence (Q63118 24-464 limits assumed, chain 1 of 2): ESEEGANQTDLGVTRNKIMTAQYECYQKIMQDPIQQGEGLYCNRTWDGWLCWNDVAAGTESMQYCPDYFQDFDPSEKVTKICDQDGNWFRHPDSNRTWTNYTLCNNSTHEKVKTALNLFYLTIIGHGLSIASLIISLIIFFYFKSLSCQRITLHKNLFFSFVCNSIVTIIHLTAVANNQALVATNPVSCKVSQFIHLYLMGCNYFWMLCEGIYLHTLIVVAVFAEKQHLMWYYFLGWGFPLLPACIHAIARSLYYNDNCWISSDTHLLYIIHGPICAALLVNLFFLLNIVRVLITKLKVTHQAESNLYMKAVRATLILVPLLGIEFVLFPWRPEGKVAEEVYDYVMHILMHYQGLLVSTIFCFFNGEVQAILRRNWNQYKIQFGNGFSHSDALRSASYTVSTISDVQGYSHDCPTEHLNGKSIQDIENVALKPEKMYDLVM
UniProt Q63118, sequence (Q9JJ74 27-148 limits assumed, chain 2 of 2, further chain): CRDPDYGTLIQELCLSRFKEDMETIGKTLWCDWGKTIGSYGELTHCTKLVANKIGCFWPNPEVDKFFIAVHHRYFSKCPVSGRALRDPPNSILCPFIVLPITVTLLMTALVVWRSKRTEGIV
UniProt O60895, sequence (O60895 43-175): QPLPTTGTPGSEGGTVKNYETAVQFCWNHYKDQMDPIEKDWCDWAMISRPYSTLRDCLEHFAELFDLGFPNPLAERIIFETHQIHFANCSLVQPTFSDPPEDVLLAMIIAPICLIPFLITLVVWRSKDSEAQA
UniProt O60896, sequence (O60896 24-148): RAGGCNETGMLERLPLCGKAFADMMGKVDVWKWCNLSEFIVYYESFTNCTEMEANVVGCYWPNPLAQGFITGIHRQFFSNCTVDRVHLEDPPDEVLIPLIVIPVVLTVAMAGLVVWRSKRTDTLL
UniProt P30988, sequence (P30988 25-474): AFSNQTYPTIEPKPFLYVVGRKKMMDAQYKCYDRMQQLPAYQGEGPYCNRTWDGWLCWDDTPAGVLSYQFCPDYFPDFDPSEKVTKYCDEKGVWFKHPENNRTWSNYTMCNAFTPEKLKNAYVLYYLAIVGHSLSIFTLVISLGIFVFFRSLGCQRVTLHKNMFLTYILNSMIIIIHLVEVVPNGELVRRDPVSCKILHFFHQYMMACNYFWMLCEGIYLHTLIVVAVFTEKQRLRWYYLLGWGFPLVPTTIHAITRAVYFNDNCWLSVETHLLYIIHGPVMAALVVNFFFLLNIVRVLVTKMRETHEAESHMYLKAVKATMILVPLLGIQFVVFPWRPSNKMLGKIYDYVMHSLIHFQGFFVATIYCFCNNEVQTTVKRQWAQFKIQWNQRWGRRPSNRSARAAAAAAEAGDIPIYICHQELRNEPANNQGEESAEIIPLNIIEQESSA

B1: 1H7 (antibody, human IgG2, lambda, V domains shown)
VH: [about 100 residues not spelt out]DRTGYSISWSSYYYYYGMDVWGQGTTVTVSS
VL: QSVLTQPPSASGTPGQRVTISCSGSSSNIGSNYVYWYQQLPGAAPKLLIFRSNQRPSGVPDRFSGSKSGTSASLAISGLRSEDEADYYCAAWDDSLSGWVFGGGTKLTVLG
Regarding B1, the “cAMP assay IC50” value in assay [1] is greater than 1000 nM; in assay [2], 4.74 nM; in assay [3], greater than 1000 nM; in assay [4], greater than 1000 nM; in assay [5], greater than 1000 nM.

B2: 9F5 (antibody, human IgG2, lambda, V domains shown)
VH: [about 100 residues not spelt out]DRTGYSISWSSYYYYYGMDVWGQGTTVTVSS
VL: B1 VL with P7S, F50L, S52N, A75T
notes: also called 09F5; 09F5.2
As for B2, the “cAMP assay IC50” value in assay [1] is greater than 1000 nM; in assay [2] it was 4.44 nM; in assay [3], greater than 1000 nM; in assay [4], greater than 1000 nM; in assay [5], greater than 1000 nM. Also, the binding result in assay [6] is given as “binds”.

Values taken from patent US20150376286A1 (Amgen, published 2015).
